Assay results: the RNAGym collection of RNA variant scans (doi:10.7554/elife.90254)
The source gives no read counts; variants with many changes may rest on few reads.

B1: LINE1-mini (parent)
chain: GGCAGAGCUCAACACAGCGUGGCAAAGUGGCUGUGGCUAGACUGCC

Variants of: B1
Assay: self-cleavage, relative activity (ratio to wild type); higher = more cleavage; in vitro, sequencing; the parent is a self-cleaving ribozyme

Variant	self-cleavage
C3G G35U C45A	0.03
C3U A12C A41G	0.02
C3G G30C G35U	0.1
C3U A6G A41U	0.1
C3G U32A G40U C45U	0.07
C3G U38A G40C U43A	0.11
C3G G5C G17C	0.02
C3U A4C A26U G33U C46G	0.05
C3G G7C G17U	0.02
C3U A11U U34G	0
C3G G7C C31A C42A	0.01
C3G G7U G35U	0.08
C3G C23A G30U C37U G44C	0.01
C3G G17U U20G	0.04
C3G G27U U32C	0.12
C3G G22U C37U	0.08
C3U A4C C31U G33A	0.07
C3U A4G C8A	0.13
C3G G19A G29U C46G	0.2
C3G G21A C37A G40U	0.33
C3G C18U G36A	0.47
C3U A4C G5U G33A C37A	0.06
C3U A4G C15G A24G U43G	0.1
C3U A4G U20G A26G A41U	0

Variant	self-cleavage
C3U A11U C15U G17U G27A G29C C42A	0.03
C3U A4G G19C G30C G35U	0.04
C3U A6U C23A C37G G44U	0.02
C3G G5C G22A G27U U38G	0.03
C3G U9G G19C G21C A24C C37U G40A U43G	0.13
C3U A11G C13G U20A C23A	0.03
C3U A11U U20C	0.06
C3G U9A C45G	0.29
C3G G35U U38G	0.36
C3G G19A G30U	0.67
C3G G19U A26C U32A U34G	0.08
C3G G5C A11G G44U	0.03
C3G U9A C10U U20G U34A C46G	0.06
C3U A11C G29U	0.05
C3G G17A G30A G35C G40A	0.52
C3U A4G G5A	0.07
C3G U9A U20A	0.04
C3G G30U U43A	1.83
C3G U9A C13A A14G C15U G19C G36U A41U	0.13
C3G U20A U28C G36C	2.15
C3G G7C C8U G44U C46G	0.08
C3G G17A C23U G44A	0.22
C3U A6C A12C C15G C42G	0.04
C3G G33A G35A	0.02

Variant	self-cleavage
C3G G17A U28G G30C U43C	0.09
C3G G19A C23U U34A	0.14
C3G G17C G40C C42A	0.1
C3G G7A A12G A14G C18A A25G G44C	0.01
C3U A4C A25U U34A	0.12
C3U A6G A11C C13U G19U	0.01
C3G G5A U34G G35A G40U	0.08
C3G U9A U34G A39C C42A G44A	0.05
C3G C31U C37A	0.02
C3G G5A G30A C31U	0.03
C3U A4C C13A A39G	0.17
C3G G17A G30U	0.6
C3U A12C A24U G27U C31U	0.03
C3G G7A C45U	0.24
C3G G35C G40C G44C	0.02
C3G G5U A25G G30C	0.53
C3U A11C G19A A41C	0
C3U A12G A16C G19C	0.04
C3G G27A U43G C45G	0.02
C3U A6G C8A	0.17
C3G U9C A12G A14G	0.02
C3U A6G G22U G27A U38C G40U C42A	0.08
C3G G7A C13G C15G A24G A25C A26G G27A G33U	0.19
C3U A4C G5C C13A C31A	0.45

Variant	self-cleavage
C3U A4G C8U G22A U34C U43A	0.19
C3U A4C U9G	0.5
C3G U9C G21C G22A A25G U28A G30U U43A	0.01
C3G G7A C8U	0.43
C3U A11C A16C U20G A24U G33U	0.02
C3G G21U C42G	0.31
C3G U9A A14C A25C G40U	0.04
C3G U9G A14U	0.13
C3U A11G G17U G29A	0.03
C3G C31A U34G G35A	0
C3U A4G A26U U28G G36U A41U	0.07
C3U A4G G7C C45A	0.18
C3G G21C G29A	0.02
C3U A11U C23A U38A	0.03
C3G C23G C42G	0.01
C3G C23G C42U	0.63
C3G G17A C18U G19A C31A G40C	0.02
C3U A11U G35A	0.03
C3U A11U G35U	0.02
C3G U20G A24C	0.09
C3U A4U C8U C13G A14U C15G	0.65
C3G G7U A16G G22A	0.05
C3U A6C A16G C18U	0.44
C3U A4G G17A C45U C46U	0.01

Variant	self-cleavage
C3G G17U C23G	0.07
C3G G5A C37G	0.16
C3G G7C U43A C45A	0.01
C3U A4G C31A U34G	0.1
C3U A6G G30C	0.41
C3G G5U U20A G44U	0.04
C3G G5A G33U C42G	0.09
C3G G29C G36A	0.05
C3U A11U G30C	0.02
C3G G7A C23U	0.06
C3G G7U A12G G35A	0.08
C3G G7U C10G U20C G27C	0.02
C3U A4G G33C U34G G44U	0.06
C3U A12C U34A G35U	0.01
C3G G27U U34C G40C	0.07
C3G G7A G22U G30A G33A	0.17
C3G C23A C37G G40A A41U C42A	0.15
C3G G19U G21A A24U	0.97
C3G G19C C45A	0.29
C3U A4G G7U C10U U43A	0.03
C3G G35U A41C C42G	0.05
C3U A6U A11G U43G G44U	0.02
C3G G19C C37U	0.02
C3G G21U A25C U38C	0.23

Variant	self-cleavage
C3G U34C G36C	0.07
C3G U34C G36A	0.09
C3G U9G A12G G21U C37A A39G	0.03
C3G U20G C42A U43A	0.04
C3G G17A G29A	0.13
C3G C23G A24U	0.41
C3G G5C U34C G44U	0.01
C3G G5C G33A G40C C42U	0.08
C3U A6G C18G G40U G44U C46U	0.02
C3U A11U C37U	0
C3G G21U C45U	0.07
C3U A12C A16C U34C U43A	0.04
C3G U9A C10G U34A A41U	0.05
C3G G5C A39C	0.37
C3G G29U U43C G44A	0.08
C3G C23U G30U	1.4
C3G U38G A39G	0.01
C3U A4U G7U G22C A41G	0.33
C3G G7A G44U	0.07
C3G G5C C13G G36A	0.13
C3U A6G G27A C42A	0.02
C3G G17U U34G G36C	0.05
C3G G27C C46A	0.07
C3U A6G G7A U9C G33A G35U	0.02

Variant	self-cleavage
C3G G17A G29U U34A C37A	0.06
C3U A6G G7U C10G A12G U38C	0
C3G U34C C42A	0.21
C3U A4G C8U U9C C15A C23U A25U G30C G35A	0.86
C3U A12C U28A C45A	0.02
C3G G27C G36C	0.19
C3U A4C G35A	0.53
C3G G7U C23G A26G U32A	0.07
C3G U38G U43C	0.03
C3U A6G A25C	0.15
C3U A11U U28G U34C G35A	0.07
C3G U28G G44U	0.45
C3U A4C G21U G27U	0.11
C3G G36U G40C	0.09
C3G G17U A24U	0.18
C3U A6C C15G G17U	0.02
C3G G21A A24U	0.11
C3U A4U G17U C37G U38A	0.02
C3G G5U G36U A39U U43C	0.05
C3G G7A G29U	0.6
C3G G5A A11G	0.06
C3G G5C C45U	0.08
C3G G7C C10G C13U G30A C45U	0.03
